Experimental data as given in article PMC4336329 (PLoS ONE, 2015).
Hit rate of the full screen: of about 310,000 compounds, about 14,000 (4.5%) showed an effect of 50% or more. The effect is printed as a negative number. This is one part of the list.

Biological target: human ether-à-go-go-related gene (hERG) potassium channel (human, UniProt Q12809)
Experiment: primary screen, population patch clamp on CHO cells stably expressing hERG
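Note: peak tail current of the secondary pulse compared with the same well before compound.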

Sequence of human ether-à-go-go-related gene (hERG) potassium channel (Q12809 whole entry, looked up): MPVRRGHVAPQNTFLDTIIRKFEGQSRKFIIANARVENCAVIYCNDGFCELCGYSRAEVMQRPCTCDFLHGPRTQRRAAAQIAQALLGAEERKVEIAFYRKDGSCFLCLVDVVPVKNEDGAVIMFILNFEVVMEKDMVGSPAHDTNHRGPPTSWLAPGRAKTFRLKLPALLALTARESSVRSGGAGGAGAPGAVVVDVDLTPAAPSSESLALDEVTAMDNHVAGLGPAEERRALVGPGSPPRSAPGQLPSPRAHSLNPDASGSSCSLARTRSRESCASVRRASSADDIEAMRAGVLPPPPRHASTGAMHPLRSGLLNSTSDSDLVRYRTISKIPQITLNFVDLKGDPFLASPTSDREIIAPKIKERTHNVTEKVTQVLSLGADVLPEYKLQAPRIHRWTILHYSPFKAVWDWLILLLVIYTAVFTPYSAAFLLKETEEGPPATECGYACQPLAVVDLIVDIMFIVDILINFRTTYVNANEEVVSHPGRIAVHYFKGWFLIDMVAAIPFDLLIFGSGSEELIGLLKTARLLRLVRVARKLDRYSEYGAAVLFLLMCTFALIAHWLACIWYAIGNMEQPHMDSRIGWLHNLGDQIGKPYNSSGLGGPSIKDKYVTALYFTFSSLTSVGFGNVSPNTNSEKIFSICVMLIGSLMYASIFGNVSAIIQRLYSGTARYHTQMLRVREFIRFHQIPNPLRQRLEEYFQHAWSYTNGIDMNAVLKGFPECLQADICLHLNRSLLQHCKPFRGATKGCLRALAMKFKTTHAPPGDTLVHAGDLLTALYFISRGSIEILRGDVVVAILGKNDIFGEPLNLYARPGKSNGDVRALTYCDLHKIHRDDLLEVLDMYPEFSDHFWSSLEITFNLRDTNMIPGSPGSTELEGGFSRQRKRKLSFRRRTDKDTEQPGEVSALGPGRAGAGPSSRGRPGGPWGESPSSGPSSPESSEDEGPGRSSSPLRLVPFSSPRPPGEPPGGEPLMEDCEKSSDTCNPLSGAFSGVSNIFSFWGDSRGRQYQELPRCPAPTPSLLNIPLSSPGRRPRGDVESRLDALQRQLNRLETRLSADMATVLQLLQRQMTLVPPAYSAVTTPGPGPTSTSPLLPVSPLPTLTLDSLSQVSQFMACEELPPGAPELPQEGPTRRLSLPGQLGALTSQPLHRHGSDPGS

Row | SMILES | hERG current change (%, negative = inhibition) at 10uM
1 | CCN(CC)CCCNC(=O)CSc1c2c(nc3cc(Cl)ccc13)CCCC2 | -48.4%
2 | O=C(NCc1ccccn1)c1ccc(CNS(=O)(=O)c2cccc(C(F)(F)F)c2)cc1 | -10.5%
3 | Cc1ccc([N+](=O)[O-])cc1NC(=O)CCSc1ccc(Cl)cc1 | 5.48%
4 | CCCCCn1c(N2CCOCC2)nc2c1c(=O)n(CC(N)=O)c(=O)n2C | -6.44%
5 | Cc1cc(C)cc(NS(=O)(=O)c2cnc(Cl)c(Cl)c2)c1 | 7.75%
6 | O=S(=O)(Nc1ncccn1)c1ccc(NC(=S)N2CCN(Cc3ccc(F)cc3Cl)CC2)cc1 | 22%
7 | O=Cc1c(C(=O)O)n(Cc2ccccc2F)c2ccccc12 | 14.3%
8 | COc1ccc(C2Nc3ccccc3C(=O)N2Cc2ccco2)cc1COc1ccccc1F (centres unmarked) | 10.5%
9 | O=C(NC(=S)Nc1cccc2cc(O)ccc12)c1ccco1 | 21.5%
10 | CCC(=O)c1ccc(OC(=O)Cc2ccc(OC)cc2)cc1 | 10.1%
11 | CCOC(=O)C1(Cc2ccccc2)CCN(Cc2cccn2-c2cccnc2)CC1 | -39%
12 | Cc1ccc(NC(=O)c2ccc([N+](=O)[O-])o2)cc1S(=O)(=O)N1CCOCC1 | -37.4%
13 | COc1ccc(NC(=O)COC(=O)CO/N=C(\C)c2ccc3c(c2)OCO3)cc1S(N)(=O)=O | -0.902%
14 | c1ccc(CCCc2nc(-c3ccccn3)no2)cc1 | -7.53%
15 | COc1cc(/C=N/NC(=O)CCC(=O)Nc2ccc(Br)cc2)ccc1O | 22%
16 | O=C1CNC(=O)N1CC(O)Cn1c2ccccc2c2ccccc21 (centres unmarked) | 9.97%
17 | COc1cc(CNc2ccc(O)cc2)cc(Br)c1OCc1ccccc1F | 8.69%
18 | O=C(Nc1ccccc1Cl)NC1(C(=O)N2CCCCC2)CCCCC1 | 14.9%
19 | Cc1ccccc1Nc1c([N+](=O)[O-])ccc2c1=NC1(CCCCC1)N=2 | -16.6%
20 | Cc1c(CC(=O)NCCCO)c(=O)oc2cc3c(cc12)CCC(C)(C)O3 | 17.6%
21 | CCN(c1ccccc1)S(=O)(=O)c1ccc(OC)c(NC(=O)C2CC(=O)N(Cc3ccccc3)C2)c1 (centres unmarked) | -24%
22 | C=CCNC(=O)C(=O)NCCCN1CCOCC1 | 23.7%

Row | SMILES | hERG current change (%, negative = inhibition) at 10uM
23 | Cc1ccccc1N(Cc1nnc2n1CCCCC2)C(=O)Nc1ccccc1 | 16%
24 | COCCNC(=O)c1cc(-c2ccc(-c3ccccc3)cc2)nc2ccccc12 | 1.12%
25 | Cc1ccc(NC(=O)C2CC(=O)NC(Nc3cccc(C)c3)=N2)cc1 (centres unmarked) | 6.66%
26 | COCCOC1CCN(C(=O)C2CCC(=O)N(CCc3ccccc3)C2)CC1 (centres unmarked) | 17.2%
27 | CC(C)(C)c1ccc(NC(=O)CSc2n[nH]c(=O)n2-c2cccnc2)cc1 | 23.3%
28 | COC(=O)c1ccccc1NC(=S)NC(=O)c1ccccc1C | -18.2%
29 | O=[N+]([O-])c1ccc(-c2csc(NN=C3CCCC3)n2)cc1 | 15.5%
30 | CCC(C)Oc1ccc(/C=C/c2[nH]c(=O)[nH]c(=O)c2[N+](=O)[O-])cc1OC (centres unmarked) | 0.289%
31 | CCOC(=O)c1sc2nc3c(SCC(=O)O)cc(C(=O)c4ccccc4O)cn3c(=O)c2c1C | -17.8%
32 | Cc1nc(SCc2ccc(OCCC(C)C)cc2)n[nH]1 | -3%
33 | Cc1ccc(-n2c(C)cc(/C=C(\C#N)C(=O)NCC3CCCO3)c2C)cc1 (centres unmarked) | -21.3%
34 | N=C1C(c2nc3ccccc3s2)=C(O)CN1C1CCCCC1 | -6.76%
35 | O=C(CNC1CCCCC1)N1CCC2(CC1)OCCO2.O=C(O)C(=O)O | 21.4%
36 | O=C(COc1ccc(F)cc1)Nc1ccc(S(=O)(=O)Nc2ncccn2)cc1 | -5.32%
37 | COc1cc(/C=N/Nc2ccc(Cl)c(C(=O)O)c2)ccc1OC(=O)c1ccccc1F | 6.42%
38 | COCCCn1c(=O)c2sccc2n2c(CCCC(=O)NCc3ccccc3)nnc12 | -10.7%
39 | Cn1c(C(=O)N2CCCC(C(=O)NCCCSC3CCCCC3)C2)cc2sccc21 (centres unmarked) | -38.4%
40 | NC(N)=N/N=C/c1ccc(Cl)c(Cl)c1 | -30%
41 | CCCCNc1cc(Cl)nc(N)n1 | 0.797%
42 | Cc1ccc2c(c1)[nH]c1c(=O)n(Cc3ccccn3)cnc12 | 1.9%
43 | C=CCn1c(SCc2csc(C)n2)nc2sc3c(c2c1=O)CCCCC3 | -8.41%
44 | CCOc1ccc(CN2C(=O)c3ccccc3C2=O)cc1C(=O)Nc1nnc(SCC)s1 | 4.47%
